# Assay results: US20050208046A1, “TWEAK receptor” (Immunex Corporation, published 2005)
# B1: TWEAKR-Fc (Fc fusion)
# chain: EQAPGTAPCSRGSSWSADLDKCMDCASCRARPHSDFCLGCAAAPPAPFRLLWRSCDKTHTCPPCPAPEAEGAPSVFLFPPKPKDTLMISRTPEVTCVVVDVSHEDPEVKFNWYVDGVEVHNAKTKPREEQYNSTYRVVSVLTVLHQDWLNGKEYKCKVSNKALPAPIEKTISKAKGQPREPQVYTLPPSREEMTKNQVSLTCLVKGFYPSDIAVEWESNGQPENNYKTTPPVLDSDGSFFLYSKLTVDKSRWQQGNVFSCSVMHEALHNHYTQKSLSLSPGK
# Target: human full length TWEAK (human, UniProt O43508)
# Assay: Scatchard analysis, 125I-TWEAKR-Fc on CV-1 cells transfected with human full length TWEAK mixed 1:30 with Raji cells, 4° C.
# Procedure: The cells were incubated with serial dilutions of 125-I labeled human TWEAKR-Fc for 2 hours at 4° C. Free and bound probe was separated by microfuging the samples through a phalate oil mixture in plastic tubes. Supernatants and pellets were gamma-counted.
binder,measurement,value
B1,Ka,~4.5e+08 M⁻¹
